Test results taken from PubChem BioAssay (NCI).
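Growth conditions: 96-well plates. Treatment: test compound, 48 hours, 5 concentrations. Analysis: linear interpolation between bracketing concentrations; unreached endpoints set to highest concentration. GI50 is the concentration that inhibits growth by half. Definition used: TGI = concentration required for complete inhibition of growth.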

The compounds below were run on NCI-H322M lung (assay: NCI anticancer screen, dose series, 48 h).

Row | SMILES | TGI [µM] | GI50 [nM]
1 | CC1CC/C(=C\c2ccc(F)cc2)C2=C1C(c1ccc(F)cc1)n1c(s/c(=C/c3cccc(Br)c3)c1=O)=N2 (centres undefined) | > 100 | –
2 | CCOC(=O)C(COS(C)(=O)=O)(COS(C)(=O)=O)C(=O)OCC | > 100 | –
3 | O=C1C=CC(=O)C(CNc2ccc(C(=O)OC34CC5CC(CC(C5)C3)C4)cc2)=C1Br | 29.6 | –
4 | CC(=O)OCC1OC(N2C(=O)NC(=O)C3C=C4CCCCC4=CC32)C(OC(C)=O)C1OC(C)=O (centres undefined) | > 100 | –
5 | CC(C)(C)c1ccc(O)c(CN(Cc2c(O)ccc3ccccc23)C2CCCCC2)c1 | 41.2 | –
6 | CCOC(=O)C1OC(=O)CC1C1(C(=O)OCC)C=CC(=O)O1 (centres undefined) | > 100 | –
7 | COC(=O)C1C(OS(=O)(=O)O)CCC2CN3CCc4c([nH]c5ccccc45)C3CC21 (centres undefined) | > 100 | –
8 | O=C1CC[C@H](NC(=O)Cc2ccccc2)C(=O)N1 | > 1250 | –
9 | O=C(/C=C/c1ccc(O)c(O)c1)OCCCOC(=O)/C=C/c1ccc(O)c(O)c1 | > 100 | –
10 | CN=c1ssc(/N=C(\SC)N(C)C)[n+]1C | > 100 | –
11 | CCn1c(O)c(C=Nc2ccccc2)s/c1=N/Nc1ncc(CC(=O)Nc2ccccc2C)s1 | > 100 | –
12 | Nc1ncnc2c1ncc(=O)n2C1CC(O)C(CO)O1 (centres undefined) | > 100 | –
13 | Oc1c(Br)cc(Br)c2ccc(Cn3cc(-c4ccc(C(F)(F)F)cc4)nn3)nc12 | 27.5 | 14400
14 | CN(CCCNCc1ccccn1)Cc1ccccc1O | > 100 | –
15 | Clc1cc(OC23CC4CC(CC(C4)C2)C3)nc(Cl)n1 | > 100 | –
16 | CCC(=O)Nc1ccc(NCC(=O)Nc2ccc(Cl)cc2)cc1 | 29.9 | –
17 | C=C1CC2(CC(c3ccccc3OC)OC(c3ccccc3OC)C2)OC1=O (centres undefined) | 28.7 | –
18 | C=C1CC(C)(COc2ccc3c(C)c(C)c(=O)oc3c2C)OC1=O (centres undefined) | 22.6 | –
19 | Cc1cc(OCC(=O)O)c(Cl)cc1Cl | > 100 | –
20 | COc1nc(N)c(N=O)c(OCc2ccccc2)n1 | > 10 | –
21 | COc1ccc(/C=C2/SC(c3ccc(Cl)cc3)N(NC(=O)CCCCCCCCC(=O)NN3C(=O)/C(=C\c4ccc(OC)c(OC)c4)SC3c3ccc(Cl)cc3)C2=O)cc1OC (centres undefined) | > 100 | –
22 | CC(C)(C)COC1C2(OCCO2)C2CCC1(C)C2(C)C (centres undefined) | > 100 | –
23 | C[C@H]1[C@H](N2CCCC2)O[Si](C(C)(C)C)(C(C)(C)C)[C@@H]1C | > 100 | –
24 | O=S(=O)(c1ccc(Cl)cc1)c1ccccc1C1=NCCN1 | > 100 | –
25 | O=C(C[n+]1cccc2cc(Cl)ccc21)c1ccc2c(c1)CCCC2 | 11.7 | 2820

Row | SMILES | TGI [µM] | GI50 [nM]
26 | CC(C)=CCNc1ncnc2c1c(C#N)cn2C1OC(CO)C(O)C1O (centres undefined) | > 100 | –
27 | Nc1n[nH]c2cccc(C#Cc3cccc(NC(=O)c4ccc(N5CCOCC5)c(C(F)(F)F)c4)c3)c12 | 6.36 | 1760
28 | CC1(C)OCC(C2OC3OC(C)(C)OC3C2N)O1 (centres undefined) | > 100 | –
29 | CN(CCCN=C=S)CCCN1c2ccccc2CCc2ccccc21 | 3.11 | –
30 | Cc1cn(CCCC2=NCCCN2)c(=O)[nH]c1=O | > 100 | –
31 | C[C@]12CC[C@@H]3c4cc(Br)c(O)c(Br)c4CC[C@H]3[C@@H]1CC(Br)C2=O (some centres undefined) | 35.8 | –
32 | COc1cc2c(c(O)c1OC)C(=O)C1CCC(=O)N1C2c1cccc2ccccc12 (centres undefined) | > 100 | –
33 | CN(C)CCn1c(=O)c2ccc(NCCCN(C)CCCNc3ccc4c(=O)n(CCN(C)C)c(=O)n5c6ccccc6c(=O)c3c45)c3c(=O)c4ccccc4n(c1=O)c23 | 1.4 | –
34 | COc1ccc2[nH]c3c(C)c4ccncc4c(C)c3c2c1 | 1.66 | –
35 | O=[N+]([O-])c1ccc2c(c1)c1nn2CCCCOc2nn(c3ccc([N+](=O)[O-])cc23)CCCCO1 | > 100 | –
36 | CCCCCCc1cc2c(C)c(C)c(=O)oc2cc1OCCCOc1cc2oc(=O)c(C)c(C)c2cc1CCCCCC | > 100 | –
37 | COC(=O)C12C3C4(C(=O)OC)C1C1(C(=O)OC)C2C3(C(=O)OC)C41C(=O)N(C(C)C)C(C)C (centres undefined) | > 100 | –
38 | O=C(Cc1cc[n+]([O-])cc1)C(=O)Nc1cc(Cl)c(Cl)cc1Cl | > 100 | –
39 | CCOC(=O)CCc1cccc2c1oc1c(CCNC(=O)OCC3c4ccccc4-c4ccccc43)cccc12 | 56.3 | –
40 | C[C@]12CC[C@@H]3c4ccc(O)cc4CC[C@H]3[C@@H]1CC[C@@H]2NS(=O)(=O)c1ccc(Cl)cc1 | 22.8 | 10200
41 | COC(=O)C(Cc1c[nH]c2ccccc12)NP(=O)(O)OCC1OC(n2ccc(N)nc2=O)C(O)C1O (centres undefined) | > 100 | –
42 | O=C(Nc1ccc(Cl)cc1)c1cc2c(cc1Cl)SC(NNCCO)=NS2(=O)=O | > 100 | –
43 | O=C1/C(=C\c2cccc(Oc3ccccc3)c2)SC(c2ccccc2)N1c1ccccc1Cl (centres undefined) | > 100 | –
44 | CCOC(=O)C1=c2[nH]c3cccc4cccc(c43)n2C(=O)CC1 | > 100 | –
45 | Cc1cc(Cl)nc(Nc2nc3ccccc3[nH]2)n1 | > 100 | –
46 | COC(=O)C1=C(O)C(C(=O)OC)[C@@]2(O)[C@@H](C(=O)OC)C(c3ccc(OC(=O)/C=C/c4ccccc4)cc3)C[C@@H]1[C@@H]2C(=O)OC (some centres undefined) | 94.2 | –
47 | [N-]=[N+]=Nc1cc(=O)n(-c2ccccc2)c2ccccc12 | > 100 | –
48 | O=C1/C(=C/c2ccccc2)CN(C(=O)CCN2CCC(=NO)CC2)C/C1=C\c1ccccc1 | 3.03 | 1630
49 | O=c1[nH]nc(-c2ccccc2)n1/N=C\CC/C=N\n1c(-c2ccccc2)n[nH]c1=O | > 100 | –
